Measurements published in PubChem BioAssay AID588342 (National Center for Advancing Translational Sciences (NCATS), 2011).
Several values for one entry are separate records, joined by “and”; a condition that tells them apart may be missing. Identical values can stand only once. Out of some 360,000 compounds screened, about 25,000 (6.9%) were called active. This list was built around the results that the source calls inconclusive (neither active nor inactive); the mix of calls is not that of the screen. Calls come from the whole dose curve; as a rule, active = well fitted inhibition curve with a large enough effect; inconclusive = small, poorly fitted or top-dose-only effect; inactive = flat fitted curve, though single readings scatter. A potency beside an inconclusive call is a rough fit, not a confirmed value.

The compounds below were run against Luciferin 4-monooxygenase (Photinus pyralis) (UniProt P08659) (assay: qHTS profiling assay for firefly luciferase inhibitor/activator using purifed enzyme and Km concentrations of substrates (counterscreen for miR-21 project)). Conditions: purified FLuc, luminescence inhibition; activity change, negative = inhibition: at 57.5 µM (top of the series).
Sequence of UniProt P08659 (P08659 whole entry, looked up): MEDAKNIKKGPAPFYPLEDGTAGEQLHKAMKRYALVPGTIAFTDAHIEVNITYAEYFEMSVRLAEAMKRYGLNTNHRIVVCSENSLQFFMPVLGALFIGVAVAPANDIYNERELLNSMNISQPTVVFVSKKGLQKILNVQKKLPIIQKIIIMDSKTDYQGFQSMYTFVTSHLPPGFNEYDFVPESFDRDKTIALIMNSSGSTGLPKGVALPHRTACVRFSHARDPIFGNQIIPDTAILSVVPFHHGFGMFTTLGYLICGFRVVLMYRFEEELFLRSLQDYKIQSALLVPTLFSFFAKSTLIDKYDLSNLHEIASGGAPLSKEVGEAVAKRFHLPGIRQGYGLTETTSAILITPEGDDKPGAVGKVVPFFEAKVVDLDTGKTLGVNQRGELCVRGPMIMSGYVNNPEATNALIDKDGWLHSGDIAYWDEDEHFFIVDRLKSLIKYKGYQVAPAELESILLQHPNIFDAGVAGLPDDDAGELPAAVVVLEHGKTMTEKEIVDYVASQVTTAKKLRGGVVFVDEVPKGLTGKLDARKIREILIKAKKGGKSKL
Method in brief: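 Purified P. pyralis luciferase (10nM final) with 10uM D-luciferin and 10uM ATP (Km levels) in 50mM Tris acetate pH 7.5, 10mM Mg acetate, 0.01% Tween-20, 0.05% BSA; qHTS 6-point titration, ~60 µM downward; luminescence read.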
Note: nearly all actives have a fitted effect of over 55% in size.
Potency is the fitted concentration of half-maximal effect; tags give direction and shape of the fitted curve.
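Throughout, for activity change, negative = inhibition: plate controls were vehicle for no effect and reference inhibitor for full effect.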

Row | Structure (SMILES) | Potency | activity change, negative = inhibition
1 | O=C(/C=C/c1ccc([N+](=O)[O-])cc1)Nc1cccc(C(=O)Nc2ccccc2C(=O)O)c1 | active: 5.36 µM | 
2 | CC(C)(C)c1ccc(C(=O)Nc2nnc(C3=COCCO3)o2)cc1 | active: 21.3 µM | 
3 | Cc1cccc(NC(=O)c2nc[nH]c2C(=O)NC2CCN(C(=O)OC(C)(C)C)CC2)c1 |  | inactive: 2.86%
4 | Cc1cccc(-c2nc3c(cnn3-c3ccccc3)c(=O)n2-c2cccc(Cl)c2)c1 |  | inactive: -11.7%
5 | O=c1oc(/C=C/c2ccc([N+](=O)[O-])s2)nc2ccccc12 | inconclusive: 10.7 µM [inhibitor, partial curve, poor fit] | 
6 | Cc1ccc(Nc2nnc(-c3ccc(C)c(S(=O)(=O)N4CCCCC4)c3)c3ccccc23)cc1 |  | inactive: -17.5%
7 | COc1ccc2oc(C(=O)OCC(=O)Nc3ccccc3)c(C)c2c1 | inconclusive: 16.9 µM [inhibitor, partial curve] | 
8 | c1csc(-c2nnc(N3CCCCCC3)c3ccccc23)c1 | active: 3.01 µM | 
9 | O=C(N/N=C/c1cccc(O)c1)c1cc2c(ccc3ccccc32)o1 | active: 10.7 µM | 
10 | CC(=O)Nc1ccc(NC(=O)CN2CCCC(C)C2)c(Cl)c1 (stereo unspecified) | inconclusive: 16.9 µM [inhibitor, partial curve] | 
11 | COc1ccc(N2CCN(C(=O)CCS(=O)(=O)c3ccc4c(c3)NC(=O)CO4)CC2)cc1 |  | inactive: 1.07%
12 | O=C(NNc1nc(-c2ccccc2)cs1)c1ccco1 | inconclusive: 37.9 µM [inhibitor, partial curve, poor fit] | 
13 | COCCn1c(C)cc(C(=O)COC(=O)c2cccc(O)c2)c1C | active: 0.107 µM | 
14 | CCOC(=O)C1C(=O)C=C(c2ccc(Br)cc2)CC1c1ccco1 (stereo unspecified) | inconclusive: 23.9 µM [inhibitor, single point] | 
15 | O=C(Nc1ccccc1C(=O)N/N=C/c1ccc(F)cc1)c1ccccc1Br | active: 6.01 µM | 
16 | CCOC(=O)c1ccc2nc(NC(C)=O)sc2c1 | inconclusive: 16.9 µM [inhibitor, partial curve] | 
17 | CC(=O)N1CCN(C(=O)Nc2cccc(C(F)(F)F)c2)CC1 |  | inactive: -0.34%
18 | COCCN1CCn2c(nc3cc(NC(=O)c4ccc(OC)cc4)ccc32)C1 | inconclusive: 21.3 µM [inhibitor, partial curve, poor fit] | 
19 | COc1ccccc1NC(=O)C1Cc2ccccc2CN1C(=O)c1ccco1 (stereo unspecified) |  | inactive: -1.79%
20 | CCS(=O)(=O)c1nc2ccccc2n1CC(=O)N1CCOCC1 |  | inactive: -1.17%
21 | CC1CCN(C(=O)c2ccccc2NC(=O)c2nsc3ccccc23)CC1 | inconclusive: 19 µM [inhibitor, single point] | 
22 | O=C(Nc1nccs1)c1ccc(COc2ccccc2Cl)o1 | inconclusive: 23.9 µM [inhibitor, partial curve] | 
23 | O=C(Nc1ccc(Cl)cc1)N1N=CCC1c1ccccc1 (stereo unspecified) | inconclusive: 37.9 µM [inhibitor, partial curve, poor fit] | 
24 | O=C(Nc1ccccc1)c1cn2ccccc2n1 | active: 0.953 µM | 

Row | Structure (SMILES) | Potency | activity change, negative = inhibition
25 | O=C(NC1CC1)c1ccc2c(c1)ncn2C1CCCC1 | inconclusive: 26.9 µM [inhibitor, partial curve] | 
26 | COc1cccc(-c2nnc(-c3ccccc3NC(=O)c3ccc(C(C)(C)C)cc3)o2)c1 | active: 2.39 µM | 
27 | C=CCSc1n[nH]c(-c2ccccc2)n1 | inconclusive: 26.9 µM [inhibitor, single point] | 
28 | O=C(c1cc2c(s1)-c1ccccc1OC2)N1CCc2ccccc2C1 | inconclusive: 21.3 µM [inhibitor, single point] | 
29 | COC(=O)c1sccc1NC(=O)CC1C(=O)NCCN1C(=O)Nc1ccc(OCc2ccccc2)cc1 (stereo unspecified) | inconclusive: 19 µM [inhibitor, partial curve] | 
30 | COCCN1C(=O)/C(=C/c2ccc(N3CCCC3)cc2)SC1=S | inconclusive: 2.13 µM [inhibitor, partial curve, poor fit] | 
31 | NS(=O)(=O)c1cccc(NC(=O)Cn2nc(C(=O)O)c3ccccc3c2=O)c1 |  | inactive: -0.254%
32 | Cc1ccc(NC(=O)c2ccc(Cl)c(S(=O)(=O)N3CCCC3)c2)nc1 | inconclusive: 21.3 µM [inhibitor, partial curve, poor fit] | 
33 | Cc1cc2n(n1)SC(Nc1cc(Cl)ccc1Cl)N2 (stereo unspecified) | inconclusive: 37.9 µM [inhibitor, partial curve, poor fit] | 
34 | COc1ccccc1Oc1ccc(N/C=C/C(=O)C(C)(C)C)cc1 | inconclusive: 26.9 µM [inhibitor, single point] | 
35 | O=C(Nc1nc2ccccc2[nH]1)c1ccccc1[N+](=O)[O-] | inconclusive: 37.9 µM [inhibitor, single point] | 
36 | Cc1cccc(C(=O)Nc2ccc(C(=O)/C=C/c3cccs3)cc2)c1 | inconclusive: 13.5 µM [inhibitor, partial curve] | 
37 | N#C/C(=C\c1cccs1)C(=O)NCc1ccco1 | inconclusive: 21.3 µM [inhibitor, single point] | 
38 | CCN(CC)CCNC(=O)c1ccc2c(c1)NC(=O)C(CS(=O)(=O)Cc1ccc(F)cc1Cl)N2 (stereo unspecified) |  | inactive: -6.15%
39 | COc1ccc(-c2[nH]n(-c3ccc([N+](=O)[O-])cc3)c(=O)c2C=NCCN2CCNCC2)cc1 | active: 0.953 µM | 
40 | CC(=O)Nc1ccc(NC(=O)C(C)OC(=O)C(C)SCC(=O)Nc2ccc(C)cc2)cc1 (stereo unspecified) | inconclusive: 23.9 µM [inhibitor, partial curve] | 
41 | CCOC(=O)/C(C#N)=C1/C=CN(c2ccc(C)cc2)C=N1 | inconclusive: 12 µM [inhibitor, partial curve, poor fit] | 
42 | Cc1ccsc1/C=N/NC(=O)c1nnn(-c2nonc2N)c1-c1ccc2c(c1)OCO2 |  | inactive: -14.9%
43 | Cc1ccccc1NC(=O)Cc1nnc(SCC(=O)Nc2ccccc2)n1C |  | inactive: -4.39%
44 | CCOc1ccc(OCC)c(NC(=O)c2nnn(CC(=O)Nc3cc(C)cc(C)c3)c2N)c1 |  | inactive: 1.27%
45 | Cc1ccc2[nH]c(CSc3nnc(NC(=O)COc4ccccc4C)s3)cc(=O)c2c1 |  | inactive: -17.5%
46 | COc1ccc(Nc2cc(C(=O)NCCCN(C)c3ccccc3)c3ccccc3n2)c(OC)c1 | inconclusive: 26.9 µM [inhibitor, partial curve, poor fit] | 
47 | COc1ccc(CC(=O)Nc2ccc(-c3nc4ccccc4s3)cc2Cl)cc1OC | inconclusive: 23.9 µM [inhibitor, partial curve] | 
48 | COc1ccc2c(c1)c(C(C)=O)c(C)n2CCc1ccc(OC)c(OC)c1 |  | inactive: 5.32%

Row | Structure (SMILES) | Potency | activity change, negative = inhibition
49 | COC(=O)c1ccc(NC(=O)c2cc(S(=O)(=O)N3CCC(C)CC3)cn2C)cc1 |  | inactive: 0.945%
50 | CS/C(=N\S(=O)(=O)c1cccs1)NC(=O)CSc1nc2ccccc2s1 | inconclusive: 21.3 µM [inhibitor, single point] | 
51 | CC(C)OC(=O)CSc1nnc(-c2ccc(C(C)(C)C)cc2)n1N | inconclusive: 16.9 µM [inhibitor, partial curve] | 
52 | COc1ccc(CCc2nc(C)ccc2O)cc1 | inconclusive: 21.3 µM [inhibitor, single point] and inconclusive: 16.9 µM [inhibitor, partial curve] | 
53 | CCOc1ccc(NC(=O)c2nnn(CC(=O)Nc3ccccc3OCC)c2N)cc1 | inconclusive: 4.26 µM [inhibitor, full curve] | 
54 | O=C(COC(=O)c1ccncc1)c1ccc(Cl)c(Cl)c1 | inconclusive: 37.9 µM [inhibitor, single point] | 
55 | Cc1nc2cc(-c3ccccc3)nn2c(C)c1CCC(=O)NCCc1ccccc1 | inconclusive: 26.9 µM [inhibitor, partial curve] | 
56 | C(=C\c1nc2ccccc2[nH]1)/c1ccccc1 | active: 0.301 µM | 
57 | COc1ccc(NC(=O)N2CCc3ccccc3C2)cc1OC | inconclusive: 26.9 µM [inhibitor, single point] | 
58 | COc1ccc(C2NC(=S)N(c3ccccc3)C(C)=C2C(=O)Nc2ccccc2)cc1 (stereo unspecified) | inconclusive: 33.8 µM [inhibitor, partial curve, poor fit] | 
59 | CN1C(=O)/C(=C/c2ccc(C(=O)Nc3ccc(O)cc3C(=O)O)cc2)SC1=S | active: 21.3 µM | 
60 | CCc1nc(C)c(C(=O)N2CCCC(C(=O)Nc3cccc(-c4cccc(C)c4)c3)C2)o1 (stereo unspecified) | inconclusive: 37.9 µM [inhibitor, single point] | 
61 | CCOc1ccc(S(=O)(=O)NCCC(=O)Nc2cccc(C(=O)OC)c2)cc1 |  | inactive: -9.04%
62 | CCOC(=O)N1CCN(C(=O)c2ccc3nc(N4CCC(C)CC4)sc3c2)CC1 | inconclusive: 26.9 µM [inhibitor, partial curve, poor fit] | 
63 | COc1c(C)cc(Br)cc1C(=O)Nc1ccccc1C | inconclusive: 21.3 µM [inhibitor, partial curve, poor fit] | 
64 | CC(C)(C)c1ccc(OCC(=O)Nc2ccc(C(=O)Nc3ccccc3C(=O)O)cc2)cc1 | inconclusive: 23.9 µM [inhibitor, single point] | 
65 | CC(=O)/C=C(\C)Nc1ccccc1O |  | inactive: 5.18%
66 | Cc1cc(C)n(CCNC(=O)c2cc(COc3ccc4ncccc4c3)on2)n1 |  | inactive: -17.8%
67 | CNC(=O)c1c(NC(=O)c2ccco2)sc2c1CCCC2 | inconclusive: 26.9 µM [inhibitor, partial curve] | 
68 | FC(F)Oc1ccc(/C=N/N2CCCCC2)c(OC(F)F)c1 |  | inactive: -14.5%
69 | Oc1ccc(-c2nccc(-c3cccs3)n2)cc1 | active: 8.49 µM | 
70 | COc1cccc(C(=O)N2CC(=O)Nc3ccc(C)cc3C2c2ccc(F)cc2)c1OC (stereo unspecified) |  | inactive: -3.3%
71 | NC(=O)C(C(=O)/C=C/c1ccc(Cl)cc1)=C1SCCS1 | inconclusive: 3.79 µM [inhibitor, partial curve, poor fit] | 
